# Test results reported in the supplement of paper PMC12217912.
# Some of the results follow. Sequences were assembled here from the parent chain. Inactive controls read about 0.05.
# B1: TEV protease; numbered along this chain (parent)
# chain: MGESLFKGPRDYNPISSSICHLTNESDGHTTSLYGIGFGPFIITNKHLFRRNNGTLVVQSLHGVFKVKDTTTLQQHLVDGRDMIIIRMPKDFPPFPQKLKFREPQREERICLVTTNFQTKSMSSMVSDTSCTFPSGDGIFWKHWIQTKDGQCGSPLVSTRDGFIVGIHSASNFTNTNNYFTSVPKNFMELLTNQEAQQWVSGWRLNADSVLWGGHKVFMVKPEEPFQPVKEATQL
# Variants of: B1
# Assay: raw area under fraction-flipped curve 0-4 h after induction (AUC4h, not background-subtracted), DNA-recorder readout of cleavage of the substrate (dimensionless); higher = more cleavage of the substrate by the protease variant
# Conditions: temperature: 34 °C; time window: 0-4 h after rhamnose induction
# Method: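 In vivo DNA recorder in E. coli TOP10(DE3) ΔrhaA at 34 °C. Each TEVp single-site mutant (parent TEVp 0) is paired with a single-site variant of the 7-mer TEVs (canonical ENLYFQ|S). The substrate sits between flexible linkers in a Bxb1-sfGFP-TEVs-SsrA fusion, so cleavage stabilises Bxb1 and speeds flipping of a recombination array, read by NGS. The value is the raw area under the fraction-flipped curve over 0-4 h after rhamnose induction (AUC4h), with ≥20 reads per time point. It is not background-subtracted; inactive controls average about 0.047.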
# 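Further: Bxb1 expression induced with 0.2% (w/v) L-rhamnose at OD600 near 0.5, cultures sampled hourly, flipped fraction per protease–substrate barcode pair counted by paired-end Illumina sequencing.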
Variant,area with substrate ENLYFAS,area with substrate ENLYFCS,area with substrate ENLYFDS,area with substrate ENLYFES,area with substrate ENLYFFS,area with substrate ENLYFGS,area with substrate ENLYFHS,area with substrate ENLYFIS,area with substrate ENLYFKS,area with substrate ENLYFLS,area with substrate ENLYFMS,area with substrate ENLYFNS,area with substrate ENLYFPS,area with substrate ENLYFRS,area with substrate ENLYFSS,area with substrate ENLYFTS,area with substrate ENLYFVS,area with substrate ENLYFWS,area with substrate ENLYFYS
MGESLFKGPRDYNPISSSICHLTNESDGHTTSLYGIGFGPFIITNKHLFRRNNGTLVVQSLHGVFKVKDTTTLQQHLVDGRDMIIIRMPKDFPPFPQKLKFREPQREERICLVTTNFQTKSMSSMVSDTSCTFPSGNGIFWKHWIQTKDGQCGSPLVSTRDGFIVGIHSASNFTNTNNYFTSVPKNFMELLTNQEAQQWVSGWRLNADSVLWGGHKVFMVKPEEPFQPVKEATQL [D137N],0.0604,0.0858,0.0747,0.0628,0.067,0.057,0.062,0.0633,0.0928,0.0779,0.0628,0.0657,0.0568,0.0443,0.008,0.0657,0.0635,0.0543,0.0512
MGESLFKGPRDYNPISSSICHLTNESDGHTTSLYGIGFGPFIITNKHLFRRNNGTLVVQSLHGVFKVKDTTTLQQHLVDGRDMIIIRMPKDFPPFPQKLKFREPQREERICLVTTNFQTKSMSSMVSDTSCTFPSGRGIFWKHWIQTKDGQCGSPLVSTRDGFIVGIHSASNFTNTNNYFTSVPKNFMELLTNQEAQQWVSGWRLNADSVLWGGHKVFMVKPEEPFQPVKEATQL [D137R],0.06,0.0666,,,0.061,0.0707,,0.0684,0.0657,0.0909,0.0666,0.0827,0.065,0.0626,,0.0622,,0.0582,
MGESLFKGPRDYNPISSSICHLTNESDGHTTSLYGIGFGPFIITNKHLFRRNNGTLVVQSLHGVFKVKDTTTLQQHLVDGRDMIIIRMPKDFPPFPQKLKFREPQREERICLVTTNFQTKSMSSMVSDTSCTFPSGDGIFMKHWIQTKDGQCGSPLVSTRDGFIVGIHSASNFTNTNNYFTSVPKNFMELLTNQEAQQWVSGWRLNADSVLWGGHKVFMVKPEEPFQPVKEATQL [W141M],0.0583,0.0572,,0.0576,0.0765,0.0415,0.0315,0.0553,,0.0565,0.0548,0.0671,0.0395,0.04,,0.05,0.0491,,
MGESLFKGPRDYNPISSSICHLTNESDGHTTSLYGIGFGPFIITNKHLFRRNNGTLVVQSLHGVFKVKDTTTLQQHLVDGRDMIIIRMPKDFPPFPQKLKFREPQREERICLVTTNFQTKSMSSMWSDTSCTFPSGDGIFWKHWIQTKDGQCGSPLVSTRDGFIVGIHSASNFTNTNNYFTSVPKNFMELLTNQEAQQWVSGWRLNADSVLWGGHKVFMVKPEEPFQPVKEATQL [V126W],0.0584,0.0569,,0.0585,0.0697,,0.0629,0.0515,0.0631,0.0745,,0.0607,0.0608,0.0671,0.062,0.0572,0.0611,0.0595,0.0583
MGESLFKGPRDYNPISSSICHLTNESDGHTTSLYGIGFGPFIITNKHLFRRNNGTLVVQSLHGVFKVKDTTTLQQHLVDGRDMIIIRMPKDFPPFPQKLKFREPQREERICLVTTNFQTKSMSSVVSDTSCTFPSGDGIFWKHWIQTKDGQCGSPLVSTRDGFIVGIHSASNFTNTNNYFTSVPKNFMELLTNQEAQQWVSGWRLNADSVLWGGHKVFMVKPEEPFQPVKEATQL [M125V],0.0597,0.0703,,0.0655,0.0652,,0.06,0.0675,,,0.0813,0.058,0.0556,0.0743,,0.0626,,0.0645,
MGESLFKGPRDYNPISSSICHLTNESDGHTTSLYGIGFGPFIITNKHLFRRNNGTLVVQSLHGVFKVKDTTTLQQHLVDGRDMIIIRMPKDFPPFPQKLKFREPQREERICLVTTNFQTKSMSSTVSDTSCTFPSGDGIFWKHWIQTKDGQCGSPLVSTRDGFIVGIHSASNFTNTNNYFTSVPKNFMELLTNQEAQQWVSGWRLNADSVLWGGHKVFMVKPEEPFQPVKEATQL [M125T],0.0672,0.0486,0.0548,0.074,0.0792,,0.0721,0.0593,0.0581,0.0607,0.0571,0.0604,0.0596,0.0605,0.0604,,0.0542,0.0564,
MGESLFKGPRDYNPISSSICHLTNESDGHTTSLYGIGFGPFIITNKHLFRRNNGTLVVQSLHGVFKVKDTTTLQQHLVDGRDMIIIRMPKDFPPFPQKLKFREPQREERICLVTTNFQTKSMSWMVSDTSCTFPSGDGIFWKHWIQTKDGQCGSPLVSTRDGFIVGIHSASNFTNTNNYFTSVPKNFMELLTNQEAQQWVSGWRLNADSVLWGGHKVFMVKPEEPFQPVKEATQL [S124W],0.0494,,0.0503,0.0461,0.0729,,0.079,0.0616,,0.0598,,0.0507,0.0654,0.047,,,0.0631,,
MGESLFKGPRDYNPISSSICHLTNESDGHTTSLYGIGFGPFIITNKHLFRRNNGTLVVQSLHGVFKVKDTTTLQQHLVDGRDMIIIRMPKDFPPFPQKLKFREPQREERICLVTTNFQTKSMSSMVSDTSCVFPSGDGIFWKHWIQTKDGQCGSPLVSTRDGFIVGIHSASNFTNTNNYFTSVPKNFMELLTNQEAQQWVSGWRLNADSVLWGGHKVFMVKPEEPFQPVKEATQL [T132V],0.0573,0.0654,0.0625,0.0476,0.0675,,0.0647,0.056,0.0565,0.0574,0.0641,0.0681,0.0641,,0.0663,0.0606,0.0535,0.0493,0.0501
MGESLFKGPRDYNPISSSICHLTNESDGHTTSLYGIGFGPFIITNKHLFRRNNGTLVVQSLHGVFKVKDTTTLQQHLVDGRDMIIIRMPKDFPPFPQKLKFREPQREERICLVTTNFQTKSMSSMVSDTSCTFPAGDGIFWKHWIQTKDGQCGSPLVSTRDGFIVGIHSASNFTNTNNYFTSVPKNFMELLTNQEAQQWVSGWRLNADSVLWGGHKVFMVKPEEPFQPVKEATQL [S135A],0.0531,0.0753,0.0656,0.0686,0.0657,,0.0513,0.0583,0.065,0.0674,0.0612,,0.0574,0.0679,,0.0812,0.0539,,0.0604
